# “And” between values parts separate entries of the source, which are not always exact repeats. Identical values can stand only once. Counter-ions that a name gives are not always drawn. Among all 5,800 compounds or so, about 620 (11%) showed activity.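 Rule for the calls: active = score above a cut-off or among the top three wells of a plate; in these data no inactive exceeds 0.85.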 The entries are a selection whose mix differs from that of the whole data set.
# Test system: primary human hepatic stellate cells (donor 1)
# Assay: scaled lipid accumulation score (0 = DMSO-like, 1 = nortriptyline-like); higher = stronger HSC inactivation (lipid re-accumulation), active = hit call of the paper
# Settings: 48 h
# [1] = library stock concentration: 1 mM
# [2] = library stock concentration: 10 mM
# [3] = library stock concentration: 3.33 mM
smiles,measurement,setting,value
CCCCCCCCCCCCCCCCOC[C@H](COP(=O)([O-])OCC[N+](C)(C)C)OC(C)=O,scaled lipid accumulation score,[1],inactive: ≤ 0 and inactive: ≤ -0.021
O[C@H]1[C@H]2[C@H](O)CCCN2C[C@H]1O [swainsonine],scaled lipid accumulation score,library stock concentration: 28.9 mM,inactive: 0.01
CN1CCC(c2ccc(F)cc2)C(COc2ccc3c(c2)OCO3)C1 (stereo not given),scaled lipid accumulation score,library stock concentration: 9.7 mM,inactive: 0.664
CN(C)C(=O)C(CCN1CCC(O)(c2ccc(Cl)cc2)CC1)(c1ccccc1)c1ccccc1.Cl [Loperamide hydrochloride],scaled lipid accumulation score,[2],active: 1.46
O=C1C=C2C=C[C@@H]3C[C@@]2(O1)[C@H]1CCCCN31 [Securinine],scaled lipid accumulation score,,inactive: ≤ 0
same,scaled lipid accumulation score,[2],inactive: ≤ -0.027
CC(=O)C1=C(O)[C@@H]2[C@H]3c4c[nH]c5cccc(c45)C[C@H]3C(C)(C)N2C1=O [Cyclopiazonic Acid],scaled lipid accumulation score,[2],inactive: 0.021
CC(=O)C1=C(O)[C@@H]2[C@H]3c4c[nH]c5cccc(c45)C[C@H]3C(C)(C)N2C1=O [Cyclopiazonic acid],scaled lipid accumulation score,library stock concentration: 14.9 mM,inactive: 0.019
CN1CCC(c2c[nH]c3ccc(O)cc23)CC1,scaled lipid accumulation score,[3],inactive: ≤ 0
same,scaled lipid accumulation score,[2],inactive: 0.037 and inactive: 0.02 and inactive: ≤ -0.006
COc1ccc2[nH]c3c(c2c1)CCN=C3C [Methoxy-6-harmalan],scaled lipid accumulation score,,inactive: 0.039
CC(N)Cc1c[nH]c2ccc(OCc3cccs3)cc12 (stereo not given),scaled lipid accumulation score,[1],inactive: 0.315
C1=C2CCCN[C@H]2[C@@H]2C[C@H]1[C@H]1CCCCN1C2 [Aloperine],scaled lipid accumulation score,[3],inactive: 0.028
same,scaled lipid accumulation score,[2],inactive: 0.068
C[N+]1(C)[C@@H]2CC[C@H]1C[C@@H](OC(=O)C(CO)c1ccccc1)C2 (stereo not given in full) [Methylatropine nitrate],scaled lipid accumulation score,,inactive: ≤ 0
C[N+]1(C)[C@@H]2CC[C@H]1C[C@@H](OC(=O)C(CO)c1ccccc1)C2 (stereo not given in full) [Atropine methyl nitrate],scaled lipid accumulation score,[2],inactive: ≤ 0
C[N+]1(C)[C@@H]2CC[C@H]1C[C@@H](OC(=O)C(CO)c1ccccc1)C2 (stereo not given in full) [Atropine methyl bromide],scaled lipid accumulation score,[2],inactive: ≤ 0
CN1C[C@H](C(=O)N[C@]2(C)O[C@@]3(O)[C@@H]4CCCN4C(=O)[C@H](Cc4ccccc4)N3C2=O)C[C@@H]2c3cccc4[nH]cc(c34)C[C@H]21 [Dihydroergotamine mesylate],scaled lipid accumulation score,library stock concentration: 2.9 mM,inactive: ≤ 0
same,scaled lipid accumulation score,[2],inactive: 0.16 and inactive: 0.216
CN1C[C@H](C(=O)N[C@]2(C)O[C@@]3(O)[C@@H]4CCCN4C(=O)[C@H](Cc4ccccc4)N3C2=O)C[C@@H]2c3cccc4[nH]cc(c34)C[C@H]21 [Dihydroergotamine tartrate],scaled lipid accumulation score,,inactive: 0.119
O=C1NCN(c2ccccc2)C12CCN(CC1COc3ccccc3O1)CC2 (stereo not given) [Spiroxatrine],scaled lipid accumulation score,library stock concentration: 5.3 mM,inactive: ≤ -0.006
same,scaled lipid accumulation score,[2],inactive: 0.259 and inactive: 0.158
"CC1C2Cc3ccc(O)cc3C1(C)CCN2CC1CC1 (single isomer, unassigned; (+)) [(+)-Cyclazocine]",scaled lipid accumulation score,[2],inactive: 0.53
c1ccc2nc(N3CCNCC3)ccc2c1 [Quipazine dimaleate],scaled lipid accumulation score,[2],inactive: 0.262
c1ccc2nc(N3CCNCC3)ccc2c1 [Quipazine maleate],scaled lipid accumulation score,library stock concentration: 6.1 mM,inactive: 0.24
c1ccc2nc(N3CCNCC3)ccc2c1 [Quipazine dimaleate salt],scaled lipid accumulation score,,inactive: 0.306
C[N+](C)(C)CCCCCCCCCC[N+](C)(C)C [Decamethonium dibromide],scaled lipid accumulation score,[2],inactive: ≤ -0.07
C[N+](C)(C)CCCCCCCCCC[N+](C)(C)C [Decamethonium Bromide],scaled lipid accumulation score,[3],inactive: ≤ 0
same,scaled lipid accumulation score,[2],inactive: 0.026
C[N+](C)(C)CCCCCCCCCC[N+](C)(C)C [Decamethonium bromide],scaled lipid accumulation score,,inactive: 0.052
same,scaled lipid accumulation score,library stock concentration: 4.8 mM,inactive: ≤ 0
CCCCC/C=C\C/C=C\C/C=C\C/C=C\CCCC(=O)NCCF [Arachidonoyl-2'-Fluoroethylamide],scaled lipid accumulation score,[1],inactive: ≤ 0
O=C(O)CNC(=O)c1c(O)c2ccccc2n(Cc2ccccc2)c1=O,scaled lipid accumulation score,library stock concentration: 80 uM,inactive: ≤ 0
same,scaled lipid accumulation score,library stock concentration: 400 uM,inactive: ≤ 0
same,scaled lipid accumulation score,library stock concentration: 2 mM,inactive: ≤ 0
same,scaled lipid accumulation score,[3],inactive: 0.072
same,scaled lipid accumulation score,[2],inactive: ≤ 0
"Cc1c(C(=O)c2cccc3ccccc23)c2cccc3c2n1[C@H](CN1CCOCC1)CO3 [WIN 55,212-2 mesylate]",scaled lipid accumulation score,[1],inactive: ≤ -0.021
N=C(N)c1ccc(CS(=O)(=O)F)cc1 [4-Amidinophenylmethanesulfonyl fluoride hydrochloride],scaled lipid accumulation score,[2],inactive: 0.067
CCCN(C/C=C/I)C1CCc2ccc(O)cc2C1 (stereo not given) [7-Hydroxy-PIPAT maleate],scaled lipid accumulation score,[2],inactive: 0.087
CC(=O)OC1CN2CCC1CC2 (stereo not given),scaled lipid accumulation score,[2],inactive: 0.001
NC1(c2ccccc2Cl)CCCCC1=O (stereo not given) [Norketamine hydrochloride],scaled lipid accumulation score,[2],inactive: ≤ 0
O=C1NC(=O)c2c1c1c3ccccc3[nH]c1c1[nH]c3ccccc3c21 [Arcyriaflavin A],scaled lipid accumulation score,[2],inactive: 0.434
Cl.Cl.Fc1ccc(C(OCCN2CCN(CCCc3ccccc3)CC2)c2ccc(F)cc2)cc1,scaled lipid accumulation score,,active: 0.864
COc1cccc(C2(O)CCCCC2CN(C)C)c1 (stereo not given) [Tramadol hydrochloride],scaled lipid accumulation score,library stock concentration: 6.7 mM,inactive: ≤ 0
COc1cccc(C2(O)CCCCC2CN(C)C)c1 (stereo not given) [Tramadol HCl],scaled lipid accumulation score,library stock concentration: 7.6 mM,inactive: ≤ 0
COc1cccc(C2(O)CCCCC2CN(C)C)c1 (stereo not given) [Tramadol],scaled lipid accumulation score,[2],inactive: 0.009
CC(CCc1ccccc1)NC(C)C(O)c1ccc(O)cc1 (stereo not given) [Nylidrin hydrochloride],scaled lipid accumulation score,library stock concentration: 6 mM,inactive: 0.278
same,scaled lipid accumulation score,[2],inactive: 0.645 and inactive: 0.289
CC(C)C[C@@H](N)C1(c2ccc(Cl)cc2)CCC1,scaled lipid accumulation score,[2],inactive: 0.666
CC[C@@]1(O)C(=O)OCc2c1cc1n(c2=O)Cc2cc3ccccc3nc2-1 [(S)-(+)-Camptothecin],scaled lipid accumulation score,[2],inactive: 0.24
CC[C@@]1(O)C(=O)OCc2c1cc1n(c2=O)Cc2cc3ccccc3nc2-1 [Camptothecin],scaled lipid accumulation score,[3],inactive: ≤ 0
same,scaled lipid accumulation score,library stock concentration: 5.7 mM,inactive: ≤ -0.006
same,scaled lipid accumulation score,[2],inactive: ≤ 0
"CC[C@@]1(O)C(=O)OCc2c1cc1n(c2=O)Cc2cc3ccccc3nc2-1 [Camptothecine (S,+)]",scaled lipid accumulation score,,inactive: ≤ 0
